Measured values as given in patent publication US4056673A, “Phosphonoacetic acid derivatives of nucleosides” (Hoffmann-La Roche Inc., priority 1976, dated 1977).

Tested on: herpes simplex type 1 virus
Experiment: In vitro antiviral activity by tube dilution assay in WI-38 human lung fibroblast cells
Settings: for EC99: Human alphaherpesvirus 1, WI-38, 168 h, read-out: dose which inhibited the growth of herpes simplex type 1 virus by at least 2 logarithms (99% reduction in virus titer)
Procedure: Purine and pyrimidine derivatives of phosphonoacetic acid, disodium salt, were tested for in vitro antiviral activity against herpes simplex type 1 virus by the tube dilution assay. Monolayers of WI-38 human lung fibroblast cells were infected with serial ten-fold dilutions of herpes simplex type 1 virus. The mean tissue culture infective doses (TCID50) of the virus-infected cultures in the presence and absence of non-cytotoxic doses of the test substances were determined on the basis of cytopathogenic effect after 7 days incubation at 37° C. The doses of test substances which inhibited the growth of herpes simplex type 1 virus by at least 2 logarithms (equivalent to 99% reduction in virus titer) are as follows: […]

| Molecule | EC99 [µg/mL] | dose which inhibited the growth of herpes simplex type 1 virus by at least 2 logarithms (99% reduction in virus titer) (WI-38 cells, 7 days at 37° C) [μg/ml] |
| --- | --- | --- |
| Nc1ncnc2c1ncn2[C@@H]1O[C@H](COP(=O)(O)CC(=O)O)[C@@H](O)[C@H]1O [Adenosine-5'-mono-carboxymethylphosphonate] | 250 | – |
| Cc1cn([C@H]2C[C@H](O)[C@@H](COP(=O)(O)CC(=O)O)O2)c(=O)[nH]c1=O [Thymidine-5'-mono-carboxymethylphosphonate] | 500 | – |
| O=C(O)CP(=O)(O)OC[C@H]1O[C@@H](n2ccc(=O)[nH]c2=O)[C@H](O)[C@@H]1O [Uridine-5'-mono-carboxymethylphosphonate] | 125 | – |
| Nc1nc2c(ncn2[C@@H]2O[C@H](COP(=O)(O)CC(=O)O)[C@@H](O)[C@H]2O)c(=O)[nH]1 [Guanosine-5'-mono-carboxymethylphosphonate] | < 500 | – |
| Adenosine-2'-(or 3'),5'-bis-carboxymethylphosphonate | – | > 1000 |
